Consider 30 compounds from patent publication US11000038B2, “Pyridone compounds and agricultural and horticultural fungicides containing the same as active ingredients” (priority 2017, dated 2021).

The test system of test [1] is rice blast fungi (Magnaporthe grisea). Type of test: in vivo. Particulars: rice blast, spray treatment.
Test [2] deals with tomato late blight fungi (Phytophthora infestans). The format is in vivo. Particulars: tomato late blight, spray treatment.
The subject of test [3] is cucumber anthracnose fungi (Colletotrichum orbiculare). The test is described as follows: Test Example H: cucumber anthracnose, spray treatment of cucumber plants. Conditions: cucumber anthracnose, 250 ppm spray, 6 to 10 days after inoculation.

Turning to `O=c1c(Br)cn(-c2ccccc2)c(-c2cc(F)ccc2F)c1Cl` [Compound 596], the “Test A control value” in test [1] is reported as “L (L shows the control value of 50% or less)”. The “Test F control value” in test [2] is “L (L shows the control value of 50% or less)”. The “Test H control value” in test [3] is recorded as “L (L shows the control value of 50% or less)”.
Take `CCc1c(-c2ccc(F)cc2F)n(-c2ccccc2)cc(Br)c1=O` [Compound 597]: in test [1], the “Test A control value” is given as “H (H shows the control value of more than 50%)”. Moreover, the “Test F control value” in test [2] is on record as “L (L shows the control value of 50% or less)”. Also, the “Test H control value” in test [3] is recorded as “H (H shows the control value of more than 50%)”.
In the case of `CCc1c(-c2ccc(F)cc2F)n(-c2ccccc2)cc(C)c1=O` [Compound 598], in test [1], the “Test A control value” was “H (H shows the control value of more than 50%)”. In test [2], the “Test F control value” is reported as “L (L shows the control value of 50% or less)”. The “Test H control value” in test [3] is on record as “H (H shows the control value of more than 50%)”.
On to `COc1ccccc1-c1c(Cl)c(=O)c(Br)cn1-c1ccccc1` [Compound 599], for which the “Test A control value” in test [1] was “L (L shows the control value of 50% or less)”. Also, the “Test F control value” in test [2] is “L (L shows the control value of 50% or less)”. Moreover, the “Test H control value” in test [3] was “L (L shows the control value of 50% or less)”.
Regarding `O=c1c(Br)cn(-c2ccccc2)c(-c2ccccc2C(F)(F)F)c1Cl` [Compound 600], in test [1], the “Test A control value” was “H (H shows the control value of more than 50%)”. For the same compound, in test [2], the “Test F control value” is listed as “L (L shows the control value of 50% or less)”. In addition, in test [3], the “Test H control value” is “H (H shows the control value of more than 50%)”.
For `Cc1cn(-c2ccccc2)c(-c2c(F)cccc2C(F)(F)F)c(C)c1=O` [Compound 601], the “Test A control value” in test [1] is listed as “H (H shows the control value of more than 50%)”. Moreover, the “Test F control value” in test [2] is on record as “L (L shows the control value of 50% or less)”. Also, in test [3], the “Test H control value” is listed as “H (H shows the control value of more than 50%)”.
As to `COc1ccc(Br)c(-n2cc(C)c(=O)c(C)c2-c2c(F)cccc2F)c1` [Compound 602], the “Test A control value” in test [1] is “H (H shows the control value of more than 50%)”. The “Test F control value” in test [2] is recorded as “L (L shows the control value of 50% or less)”. Moreover, in test [3], the “Test H control value” is recorded as “H (H shows the control value of more than 50%)”.
Consider `O=c1c(Br)cn(-c2ccccc2)c(-c2cccc(F)c2F)c1Cl` [Compound 603], for which the “Test A control value” in test [1] is recorded as “L (L shows the control value of 50% or less)”. For the same compound, the “Test F control value” in test [2] is recorded as “L (L shows the control value of 50% or less)”. Moreover, the “Test H control value” in test [3] is “L (L shows the control value of 50% or less)”.
Consider `O=c1c(Br)cn(-c2ccccc2)c(-c2ccc(F)c(F)c2)c1Cl` [Compound 604], for which the “Test A control value” in test [1] was “L (L shows the control value of 50% or less)”. In addition, the “Test F control value” in test [2] is “L (L shows the control value of 50% or less)”. In test [3], the “Test H control value” was “L (L shows the control value of 50% or less)”.
`COc1cccc(-n2cc(C)c(=O)c(C)c2-c2c(F)cccc2F)c1` [Compound 605]: the “Test A control value” in test [1] is “H (H shows the control value of more than 50%)”. The “Test F control value” in test [2] is “L (L shows the control value of 50% or less)”. In addition, the “Test H control value” in test [3] is reported as “H (H shows the control value of more than 50%)”.
`COc1ccc(-c2c(C)c(=O)c(C)cn2-c2cc(OC)ccc2C)cc1` [Compound 606]: the “Test A control value” in test [1] was “H (H shows the control value of more than 50%)”. The “Test F control value” in test [2] is “L (L shows the control value of 50% or less)”. Besides, the “Test H control value” in test [3] is “H (H shows the control value of more than 50%)”.
As to `O=c1c(Br)cn(-c2ccccc2)c(-c2c(F)cccc2Br)c1Cl` [Compound 607], in test [1], the “Test A control value” is “H (H shows the control value of more than 50%)”. The “Test F control value” in test [2] is listed as “L (L shows the control value of 50% or less)”. The “Test H control value” in test [3] was “H (H shows the control value of more than 50%)”.
For `Cc1cn(-c2ccccc2)c(-c2c(F)cccc2Br)c(C)c1=O` [Compound 608], the “Test A control value” in test [1] is “H (H shows the control value of more than 50%)”. In addition, the “Test F control value” in test [2] is “L (L shows the control value of 50% or less)”. In test [3], the “Test H control value” is given as “H (H shows the control value of more than 50%)”.
For the compound `Cc1cccc(F)c1-c1c(Cl)c(=O)c(Br)cn1-c1ccccc1` [Compound 609], the “Test A control value” in test [1] is “H (H shows the control value of more than 50%)”. In test [2], the “Test F control value” was “L (L shows the control value of 50% or less)”. For the same compound, the “Test H control value” in test [3] is given as “H (H shows the control value of more than 50%)”.
Take `Cc1cccc(F)c1-c1c(C)c(=O)c(C)cn1-c1ccccc1` [Compound 610]: in test [1], the “Test A control value” is reported as “L (L shows the control value of 50% or less)”. In addition, the “Test F control value” in test [2] was “L (L shows the control value of 50% or less)”. Further, in test [3], the “Test H control value” is reported as “H (H shows the control value of more than 50%)”.
On to `COc1cccc(F)c1-c1c(Cl)c(=O)c(Br)cn1-c1ccccc1` [Compound 611], for which the “Test A control value” in test [1] is reported as “L (L shows the control value of 50% or less)”. The “Test F control value” in test [2] is reported as “L (L shows the control value of 50% or less)”. Besides, the “Test H control value” in test [3] is recorded as “L (L shows the control value of 50% or less)”.
For `COc1cccc(F)c1-c1c(Cl)c(=O)c(Br)cn1-c1ccc(Br)cc1` [Compound 612], the “Test A control value” in test [1] is “L (L shows the control value of 50% or less)”. Further, the “Test F control value” in test [2] was “H (H shows the control value of more than 50%)”. Further, the “Test H control value” in test [3] is “L (L shows the control value of 50% or less)”.
Consider `CCc1c(-c2ccc(F)cc2Br)n(-c2ccccc2)cc(Br)c1=O` [Compound 613], for which, in test [1], the “Test A control value” is reported as “H (H shows the control value of more than 50%)”. The “Test F control value” in test [2] is listed as “L (L shows the control value of 50% or less)”. Moreover, the “Test H control value” in test [3] was “L (L shows the control value of 50% or less)”.
As for `Cc1cn(-c2ccccc2)c(-c2cc(F)ccc2F)c(C)c1=O` [Compound 614], in test [1], the “Test A control value” is reported as “H (H shows the control value of more than 50%)”. In addition, the “Test F control value” in test [2] is reported as “L (L shows the control value of 50% or less)”. In test [3], the “Test H control value” was “H (H shows the control value of more than 50%)”.
For `Cc1cn(-c2ccccc2)c(-c2cccc(F)c2F)c(C)c1=O` [Compound 615], in test [1], the “Test A control value” is “L (L shows the control value of 50% or less)”. Besides, the “Test F control value” in test [2] was “L (L shows the control value of 50% or less)”. The “Test H control value” in test [3] is listed as “H (H shows the control value of more than 50%)”.
Regarding `Cc1cn(-c2ccccc2)c(-c2ccc(F)c(F)c2)c(C)c1=O` [Compound 616], the “Test A control value” in test [1] is given as “L (L shows the control value of 50% or less)”. The “Test F control value” in test [2] was “L (L shows the control value of 50% or less)”. In addition, the “Test H control value” in test [3] is on record as “L (L shows the control value of 50% or less)”.
`CCc1ccc(OC)cc1-n1cc(C)c(=O)c(C)c1-c1c(F)cccc1F` [Compound 617]: the “Test A control value” in test [1] is “H (H shows the control value of more than 50%)”. Further, in test [2], the “Test F control value” was “L (L shows the control value of 50% or less)”. Further, in test [3], the “Test H control value” was “H (H shows the control value of more than 50%)”.
With `CCc1ccc(O)cc1-n1cc(C)c(=O)c(C)c1-c1c(F)cccc1F` [Compound 618], the “Test A control value” in test [1] is reported as “H (H shows the control value of more than 50%)”. The “Test F control value” in test [2] was “L (L shows the control value of 50% or less)”. The “Test H control value” in test [3] is “L (L shows the control value of 50% or less)”.
Consider `CCc1ccc(OCC#N)cc1-n1cc(C)c(=O)c(C)c1-c1c(F)cccc1F` [Compound 619], for which the “Test A control value” in test [1] is recorded as “H (H shows the control value of more than 50%)”. Further, the “Test F control value” in test [2] is reported as “L (L shows the control value of 50% or less)”. For the same compound, the “Test H control value” in test [3] is listed as “H (H shows the control value of more than 50%)”.
Regarding `CCc1ccc(OCOC)cc1-n1cc(C)c(=O)c(C)c1-c1c(F)cccc1F` [Compound 620], in test [1], the “Test A control value” was “H (H shows the control value of more than 50%)”. Moreover, the “Test F control value” in test [2] is “L (L shows the control value of 50% or less)”. The “Test H control value” in test [3] is given as “H (H shows the control value of more than 50%)”.
In the case of `CCc1c(-c2ccc(F)cc2Cl)n(-c2ccccc2)cc(Br)c1=O` [Compound 621], in test [1], the “Test A control value” was “H (H shows the control value of more than 50%)”. In addition, the “Test F control value” in test [2] is on record as “L (L shows the control value of 50% or less)”. Also, the “Test H control value” in test [3] was “H (H shows the control value of more than 50%)”.
`CCc1c(-c2ccc(F)cc2C)n(-c2ccccc2)cc(Br)c1=O` [Compound 622]: the “Test A control value” in test [1] is “L (L shows the control value of 50% or less)”. For the same compound, the “Test F control value” in test [2] is listed as “L (L shows the control value of 50% or less)”. The “Test H control value” in test [3] was “L (L shows the control value of 50% or less)”.
`CCc1c(-c2ccc(F)cc2Cl)n(-c2ccccc2)cc(C)c1=O` [Compound 623]: the “Test A control value” in test [1] was “H (H shows the control value of more than 50%)”. Besides, the “Test F control value” in test [2] is reported as “L (L shows the control value of 50% or less)”. For the same compound, in test [3], the “Test H control value” is recorded as “H (H shows the control value of more than 50%)”.
For the compound `Cc1cn(-c2ccccc2)c(-c2cc(Cl)cc(Cl)c2)c(C)c1=O` [Compound 624], the “Test A control value” in test [1] is “L (L shows the control value of 50% or less)”. For the same compound, in test [2], the “Test F control value” is on record as “L (L shows the control value of 50% or less)”. Further, the “Test H control value” in test [3] is listed as “L (L shows the control value of 50% or less)”.
Take `C#CCOc1ccc(CC)c(-n2cc(C)c(=O)c(C)c2-c2c(F)cccc2F)c1` [Compound 625]: in test [1], the “Test A control value” is “L (L shows the control value of 50% or less)”. Moreover, the “Test F control value” in test [2] is “H (H shows the control value of more than 50%)”. Moreover, the “Test H control value” in test [3] is recorded as “L (L shows the control value of 50% or less)”.
